# Source: the supplement of paper PMC8728848
# This is one part of the list.
# Key:
# Assay in all cases: glycan array binding signal (z-score within array); higher = stronger binding
# Details in all cases: glycan notation: IUPAC condensed, linker removed
# [1] = biological target: GlcNAc(b1-3)Gal(b1-4)GlcNAc(b1-3)Gal(b1-4)GlcNAc(b1-3)GalNAc
# Summary of the method: (§1)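 Arrays were curated from the Consortium for Functional Glycomics database, 3228 in total, and kept only where the protein sequence was available. Binding is expressed as a within-array Z-score. This score was averaged across arrays of the same protein sequence at different concentrations or buffers and across linkers, and negative values can be read as non-binding.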
# [2] = biological target: GlcNAc(b1-3)Gal(b1-4)GlcNAc(b1-3)GalNAc
# Summary of the method: as §1
# [3] = biological target: GlcNAc(b1-3)Gal(b1-4)GlcNAc(b1-3)[GlcNAc(b1-3)Gal(b1-4)GlcNAc(b1-3)]GalNAc
# Summary of the method: as §1
# [4] = biological target: GlcNAc(b1-3)Gal(b1-4)GlcNAc(b1-6)[Gal(b1-3)]GalNAc
# Summary of the method: as §1
# [5] = biological target: GlcNAc(b1-3)Gal(b1-4)GlcNAc(b1-6)[GlcNAc(b1-3)Gal(b1-3)]GalNAc
# Summary of the method: as §1
# [6] = biological target: GlcNAc(b1-3)Gal(b1-4)GlcNAc(b1-6)[GlcNAc(b1-3)]Gal(b1-4)GlcNAc
# Summary of the method: as §1
# [7] = biological target: GlcNAc(b1-3)GalNAc
# Summary of the method: as §1
# [8] = biological target: GlcNAc(b1-3)Man
# Summary of the method: as §1
# [9] = biological target: GlcNAc(b1-3)[GlcNAc(b1-4)][GlcNAc(b1-6)]GlcNAc
# Summary of the method: as §1
# [10] = biological target: GlcNAc(b1-3)[GlcNAc(b1-6)]Gal(b1-4)GlcNAc
# Summary of the method: as §1
# [11] = biological target: GlcNAc(b1-3)[GlcNAc(b1-6)]GalNAc
# Summary of the method: as §1
# [12] = biological target: GlcNAc(b1-4)Gal(b1-4)GlcNAc
# Summary of the method: as §1
# [13] = biological target: GlcNAc(b1-4)GlcNAc
# Summary of the method: as §1
# [14] = biological target: GlcNAc(b1-4)GlcNAc(b1-4)GlcNAc
# Summary of the method: as §1
# [15] = biological target: GlcNAc(b1-4)GlcNAc(b1-4)GlcNAc(b1-4)GlcNAc(b1-4)GlcNAc
# Summary of the method: as §1
# [16] = biological target: GlcNAc(b1-4)GlcNAc(b1-4)GlcNAc(b1-4)GlcNAc(b1-4)GlcNAc(b1-4)GlcNAc
# Summary of the method: as §1
# [17] = biological target: GlcNAc(b1-4)[GlcNAc(b1-6)]GalNAc
# Summary of the method: as §1
# [18] = biological target: GlcNAc(b1-6)Gal(b1-4)GlcNAc
# Summary of the method: as §1
# [19] = biological target: GlcNAc(b1-6)GalNAc
# Summary of the method: as §1
# [20] = biological target: GlcNAc6S(b1-3)Gal(b1-4)GlcNAc
# Summary of the method: as §1
# [21] = biological target: Kdn(a2-3)Gal(b1-3)GalNAc
# Summary of the method: as §1
# [22] = biological target: Kdn(a2-3)Gal(b1-3)GlcNAc
# Summary of the method: as §1
# [23] = biological target: Kdn(a2-3)Gal(b1-4)Glc
# Summary of the method: as §1
# [24] = biological target: Kdn(a2-3)Gal(b1-4)GlcNAc
# Summary of the method: as §1
# [25] = biological target: Kdn(a2-3)Gal(b1-4)[Fuc(a1-3)]GlcNAc
# Summary of the method: as §1
# [26] = biological target: Kdn(a2-6)Gal(b1-4)GlcNAc
# Summary of the method: as §1
# [27] = biological target: Man(a1-2)Man(a1-2)Man(a1-3)Man
# Summary of the method: as §1
# [28] = biological target: Man(a1-2)Man(a1-2)Man(a1-6)[Man(a1-3)]Man
# Summary of the method: as §1
# [29] = biological target: Man(a1-2)Man(a1-3)Man
# Summary of the method: as §1
# [30] = biological target: Man(a1-2)Man(a1-3)[Man(a1-2)Man(a1-6)]Man
# Summary of the method: as §1
# [31] = biological target: Man(a1-2)Man(a1-3)[Man(a1-2)Man(a1-6)]Man(a1-6)[Man(a1-2)Man(a1-2)Man(a1-3)]Man
# Summary of the method: as §1
# [32] = biological target: Man(a1-2)Man(a1-3)[Man(a1-2)Man(a1-6)]Man(a1-6)[Man(a1-2)Man(a1-2)Man(a1-3)]Man(b1-4)GlcNAc(b1-4)GlcNAc
# Summary of the method: as §1
# [33] = biological target: Man(a1-2)Man(a1-3)[Man(a1-6)]Man(a1-6)[Man(a1-2)Man(a1-3)]Man(b1-4)GlcNAc(b1-4)GlcNAc
# Summary of the method: as §1
# [34] = biological target: Man(a1-2)Man(a1-6)[Man(a1-3)]Man(a1-6)[Man(a1-2)Man(a1-2)Man(a1-3)]Man
# Summary of the method: as §1
# [35] = biological target: Man(a1-2)Man(a1-6)[Man(a1-3)]Man(a1-6)[Man(a1-2)Man(a1-2)Man(a1-3)]Man(b1-4)GlcNAc(b1-4)GlcNAc
# Summary of the method: as §1
# [36] = biological target: Man(a1-3)[Man(a1-6)]Man
# Summary of the method: as §1
# [37] = biological target: Man(a1-3)[Man(a1-6)]Man(a1-6)[Man(a1-2)Man(a1-3)]Man(b1-4)GlcNAc(b1-4)GlcNAc
# Summary of the method: as §1
# [38] = biological target: Man(a1-3)[Man(a1-6)]Man(a1-6)[Man(a1-3)]Man
# Summary of the method: as §1
# [39] = biological target: Man(a1-3)[Man(a1-6)]Man(a1-6)[Man(a1-3)]Man(b1-4)GlcNAc(b1-4)GlcNAc
# Summary of the method: as §1
# [40] = biological target: Man(a1-3)[Man(a1-6)]Man(b1-4)GlcNAc(b1-4)GlcNAc
# Summary of the method: as §1
# [41] = biological target: Man(a1-3)[Man(a1-6)]Man(b1-4)GlcNAc(b1-4)[Fuc(a1-6)]GlcNAc
# Summary of the method: as §1
# [42] = biological target: Man(a1-6)Man
# Summary of the method: as §1
# [43] = biological target: Man(b1-4)GlcNAc
# Summary of the method: as §1
# [44] = biological target: MurNAc(b1-4)GlcNAc
# Summary of the method: as §1
# [45] = biological target: Neu5Ac(a2-3)Gal
# Summary of the method: as §1
binder,measurement,setting,value
PfulAvr4 (Pseudocercospora fuligena) (protein) HHHHHHDYKDDDDKTYVQDKTPAFVCPAADIKTTKCLGPKDCLYPSPKTCNGYIQCSPADDSYLTGIIHEMPCPSGLLWNDNKKWCDWPENTTCGLVKSAGATEVDATKQGPTPGKYHG,glycan array binding signal (z-score),[1],-0.095
same,glycan array binding signal (z-score),[2],-0.115
same,glycan array binding signal (z-score),[3],-0.137
same,glycan array binding signal (z-score),[4],-0.194
same,glycan array binding signal (z-score),[5],-0.146
same,glycan array binding signal (z-score),[6],-0.212
same,glycan array binding signal (z-score),[7],-0.085
same,glycan array binding signal (z-score),[8],0.804
same,glycan array binding signal (z-score),[9],-0.124
same,glycan array binding signal (z-score),[10],0.043
same,glycan array binding signal (z-score),[11],-0.14
same,glycan array binding signal (z-score),[12],-0.021
same,glycan array binding signal (z-score),[13],0.191
same,glycan array binding signal (z-score),[14],-0.107
same,glycan array binding signal (z-score),[15],0.556
same,glycan array binding signal (z-score),[16],23.3
same,glycan array binding signal (z-score),[17],-0.224
same,glycan array binding signal (z-score),[18],-0.108
same,glycan array binding signal (z-score),[19],0.015
same,glycan array binding signal (z-score),[20],-0.066
same,glycan array binding signal (z-score),[21],-0.171
same,glycan array binding signal (z-score),[22],-0.13
same,glycan array binding signal (z-score),[23],0.189
same,glycan array binding signal (z-score),[24],-0.115
same,glycan array binding signal (z-score),[25],-0.025
same,glycan array binding signal (z-score),[26],0.004
same,glycan array binding signal (z-score),[27],-0.121
same,glycan array binding signal (z-score),[28],-0.085
same,glycan array binding signal (z-score),[29],-0.106
same,glycan array binding signal (z-score),[30],-0.132
same,glycan array binding signal (z-score),[31],-0.013
same,glycan array binding signal (z-score),[32],-0.117
same,glycan array binding signal (z-score),[33],-0.058
same,glycan array binding signal (z-score),[34],-0.063
same,glycan array binding signal (z-score),[35],-0.003
same,glycan array binding signal (z-score),[36],-0.079
same,glycan array binding signal (z-score),[37],0.011
same,glycan array binding signal (z-score),[38],-0.076
same,glycan array binding signal (z-score),[39],-0.097
same,glycan array binding signal (z-score),[40],-0.092
same,glycan array binding signal (z-score),[41],-0.095
same,glycan array binding signal (z-score),[42],-0.118
same,glycan array binding signal (z-score),[43],-0.045
same,glycan array binding signal (z-score),[44],0.035
same,glycan array binding signal (z-score),[45],-0.101
